Data published in publication PMC12136788.
This is one part of the list.

T1: UNK ZnF1-3 (human, UniProt Q9C0B0 31-174)
T1 sequence: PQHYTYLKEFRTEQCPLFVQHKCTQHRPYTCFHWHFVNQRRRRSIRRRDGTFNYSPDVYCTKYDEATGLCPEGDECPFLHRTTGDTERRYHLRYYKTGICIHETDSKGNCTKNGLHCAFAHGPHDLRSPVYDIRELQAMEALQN

B1: chr17:65740002:65740003:+_ENSG00000130935_ENST00000581375|hu_hu|hu_hu_hu_mus_False|28_38 (ssRNA)
RNA: GGGAGUUCUACAGUCCGACGAUCAACAAAUCUUUCUUCCCUGGACGAACAGGAAGAUUCAUAUUAAAAAAAAUAUAUAUCCAUCAAGUUAGGUGUGUAAUAUCAGAAGAGCUCCAGAGCACUUUGGGAGGUGGAUCUCUGAGUCAACAGAGGAUUGAGCAUCA
B2: chr7:150253219:150253220:+_ENSMUSG00000037706_ENSMUST00000037941|mus_hu|FALSE|FALSE (ssRNA)
RNA: GGGAGUUCUACAGUCCGACGAUCCCGGAUGCCACAGCACAGCACCAUGCUCAGGAUCAUCUCGAAGAUCAUGAUCACAGCGACCACGAUGGCAGCAAUGCCGAUGAGGUACAGCUUCCCGGAGAAGAGGUCAUCGAUCUUCUGCAACAGAGGAUUGAGCAUCA
B3: chr5:21408736:21408737:-_ENSMUSG00000042453_ENSMUST00000161356|mus_hu|mus_mus_mus_hu_False|8_28 (ssRNA)
RNA: GGGAGUUCUACAGUCCGACGAUCGUUGACAGAGUUGUAGAUGGUGGCUUCAUGGAACUGGAAAGGGGAGCAGCCAAUGCUGUUAGAAGAGGAAGGAAGGCACUGGGUCUGCACGAGCUGCCAGGAAUCGGACCUUGCAUCCUUCAACAGAGGAUUGAGCAUCA
B4: chr5:128440902:128440903:+_ENSG00000066583_ENST00000173527|hu_mus|hu_hu_hu_mus_True|1_98 (ssRNA)
RNA: GGGAGUUCUACAGUCCGACGAUCUUGAACGGUGCUGCCAAGACCUUUGGGGUAUUGUUCCGUUAUGAUAACUGGAAUCCCUAAGAUCCGAGCUCCUUGCAACAGUCUCUGUCCCACACUAAUGAUGUCCCCAAAGUACUUGAUCAACAGAGGAUUGAGCAUCA
B5: chr12:39763582:39763583:-_ENSG00000139116_ENST00000544797|hu_mus|hu_hu_hu_mus_False|48_108 (ssRNA)
RNA: GGGAGUUCUACAGUCCGACGAUCCUCUAAGAAUUGGGCAUUCACUUUGAAUUCAGGAGGGGGCAGCCCGUUUUUAAUCGCUGAGGUUUUUUUUUCUUCAAUACUCUUGAACAGGUGUCUAACAGCACGAGAGAUGAUGCCCUGCAACAGAGGAUUGAGCAUCA
B6: chr7:141438946:141438947:+_ENSG00000106028_ENST00000265304|hu_mus|hu_hu_hu_mus_True|18_18 (ssRNA)
RNA: GGGAGUUCUACAGUCCGACGAUCGACGAAAUACCUGUAACACAGGUCUUCGAAACAUGGCUUCUGUUUUUCUUACAACCUAAUCUUUAGGCUUUUCCUAAAGGAAAGAAAGAAAAGGCCCAGCCACUAAAUCAAGAAACUACACAACAGAGGAUUGAGCAUCA
B7: 47740929_47741049_866_CDS_ENSG00000124214_ENST00000360426|human|control|control (ssRNA)
RNA: GGGAGUUCUACAGUCCGACGAUCUUUCUUUUUGAUUCUAGGCUUUACUCGUUCAACUGCAGGCAGGGGCGGUAACUUCUUCAGCUCCUCAAGAACAGCUAUGGCGGCAUUUUUCUUUGAAAUCUUCUUGCUUUUCCCUUCACCCAACAGAGGAUUGAGCAUCA
B8: chr3:176740097:176740098:-_ENSG00000177565_ENST00000430069|hu_mus|hu_hu_hu_mus_True|8_28 (ssRNA)
RNA: GGGAGUUCUACAGUCCGACGAUCUGUUUUGUAUACCACAAAAGGAGGCACUUUCAGUAUCUGCAAAAGGUGUUUAGUCCUAAAACAUACUCACCUAGAGGAUAACUAAAACAGAAUAUCUGUUACACUAGUAUCUAUACUCCACAACAGAGGAUUGAGCAUCA
B9: chr7:32526529:32526530:-_ENSG00000106355_ENST00000409909|hu_hu|FALSE|FALSE (ssRNA)
RNA: GGGAGUUCUACAGUCCGACGAUCAUGCACCUGUUCAAAUCAAAGUUCAUCAUUUUGUUUGGAACAACUUUUGUUUGAGAAUCAAAUGGUCACGUAAAUGACAAAACAAAUAAGCAUAUAAUGACAGAAAAGUAAGUGGCAAAACAACAGAGGAUUGAGCAUCA
B10: chr8:81717444:81717445:+_ENSMUSG00000071064_ENSMUST00000098614|mus_hu|FALSE|FALSE (ssRNA)
RNA: GGGAGUUCUACAGUCCGACGAUCGUAAUGUACACAAACCUUGACAGUAUGAUCAUCUGAACAUAAUAUGAAGAGUUAAAAAAAGGAUAGAAGAAAGAAAGUGCUGAGAACCCUAACUGCAUUACUAUAUGGAAAAAUAAGCUACAACAGAGGAUUGAGCAUCA
B11: chr1:93988920:93988921:+_ENSG00000137942_ENST00000370253|hu_hu|motif|central (ssRNA)
RNA: GGGAGUUCUACAGUCCGACGAUCCAGAUCAUGAGCAUAUCUCAUUAAUUCACCAUACACUCUGUGCGCCAUUUCUUCUGCGGCAACUUCUCGCUGUCCUGCAUAGUCAUUUAACUCAUUAAGGAUAUUAAAAAAGGCUACACACAACAGAGGAUUGAGCAUCA
B12: 79978152_79980979_818_3pUTR_ENSMUSG00000021116_ENSMUST00000071230|mouse|control|control (ssRNA)
RNA: GGGAGUUCUACAGUCCGACGAUCUCAUCUUCAUUCAAAUCUAAACUAUCCAAGAUAGAUGGGUCUGAGACUGCAUGCUUAAAAGCAUCGUAGGCACCGUAUCCAGGUCUCUUGUACUUGUCAUCGAAGACCCAGGCAGUCCUCCAACAGAGGAUUGAGCAUCA
B13: 38546408_38547869_4374_CDS_ENSG00000131747_ENST00000423485|human|control|control (ssRNA)
RNA: GGGAGUUCUACAGUCCGACGAUCAGACUGACUUUUUGCUGCUGUCUUCUUCACUGUCACAUUCUUUUUAGGAACUGGGUUUGUAAUUUCAGUUUCAUCUGGGAAAUGUGUAGCAGGAGGGCUUGAAGACAGUGGUACACUGCCCAACAGAGGAUUGAGCAUCA
B14: 29063523_29063643_132_5pUTR_ENSG00000198492_ENST00000541996|human|control|control (ssRNA)
RNA: GGGAGUUCUACAGUCCGACGAUCCUGGCCGACAUGGCUCUCAGAUCCUCACGGGCGGCGACGGCGGCGAACUCUCCUCAGCGCGGCGGCGGCGGCAGAUGAGCCCCGUCUGCGGGAGCAGGCGGAGGCUUUUGUCCCUGACACCAACAGAGGAUUGAGCAUCA

Biological target: T1, UNK ZnF1-3
Assay: nsRBNS (natural sequence RNA bind-n-seq); RBNS binding buffer (assumed for nsRBNS): 25 mM Tris pH 7.5, 150 mM KCl, 3 mM MgCl2, 0.01% Triton X-100, 500 ug/ml BSA, 20 U/ml SUPERase-In, 4 C; UNK is unkempt and MSI1 is Musashi-1; names of the RNAs are library labels; protein concentration not given here; high values mean tight binding

| Binder | binding signal [enrichment R] |
| --- | --- |
| B1 | 2.27 |
| B2 | 0.946 |
| B3 | 1.66 |
| B4 | 0.675 |
| B5 | 1.81 |
| B6 | 0.53 |
| B7 | 0.602 |
| B8 | 0.651 |
| B9 | 1.53 |
| B10 | 1.79 |
| B11 | 1.31 |
| B12 | 0.679 |
| B13 | 0.387 |
| B14 | 0.814 |
